The whole screen tested about 52,000 compounds, of which about 4,300 (8.3%) were called active. Cut-off read from the data, not from the text of the source: active = survival mostly below about 52% (no sharp cut-off); inactive = mostly above about 56%. This is one part of the list.
These compounds were tested on DeltatarO mutant (assay: S. aureus survival, RN4220 and DeltatarO strains – OD600, teichoic acid synthesis inhibitors, primary screen (AID 463173)). Conditions: S. aureus RN4220 wild type/DeltatarO growth, OD600, 18 h, stronger effect = lower value, screened at 18.75 µg/mL (by protocol).

| Structure (SMILES) | survival |
| --- | --- |
| O=C(c1ccccc1F)N(Cc1cccs1)c1ccc(O)cc1 | inactive: 93% |
| COc1ccc(C(=O)Nc2cc(S(=O)(=O)c3ccc(Cl)cc3)c(O)c(C)c2C)cc1 | inactive: 78% |
| Fc1ccc(-n2ncc3c(NCCC4=CCCCC4)ncnc32)cc1 | inactive: 83% |
| CCOc1ccc(OCC)c(NC(=O)C(NS(=O)(=O)c2cccs2)c2ccccc2)c1 (stereo not given) | inactive: 66% |
| COc1ccccc1NC(=O)Cn1nc(-c2ccc(C)cc2)c2c(c1=O)CCCC2 | inactive: 42% |
| Nc1c(-c2nc(-c3ccccc3)no2)nnn1CC(=O)Nc1cccc(F)c1 | inactive: 84% |
| CCOc1cc(-c2ccc(OC(=O)c3ccc(C)cc3)c(OC)c2)cc(=O)c2c(C)oc(C)c12 | inactive: 99% |
| CCN(CC)CCN(C(=O)c1ccco1)c1nc2cc(C)cc(C)c2s1 | inactive: 81% |
| CCCN(CCC)S(=O)(=O)c1ccc(C(=O)Nc2cccc(-c3nc4ccccc4[nH]3)c2)cc1 | inactive: 99% |
| CC(=O)c1ccc(NC(=O)CN(C)S(=O)(=O)c2cc3c(cc2Cl)NC(=O)CO3)cc1 | inactive: 72% |
| Cc1ccc(NCc2cccn2-c2nnc(N3CCC(C(=O)NCCC(C)C)CC3)s2)cc1 | inactive: 76% |
| N#Cc1c(-n2ncnc2-c2ccccc2C(F)(F)F)sc2c1CCCCC2 | active: 6% |
| CCOC(=O)c1ccc(Nc2c(-c3cccc(O)c3)nc3nc[nH]n23)cc1 | active: 46% |
| Cc1cccc(CSCc2ccc(C(=O)NCCc3ccccc3)o2)c1 | inactive: 87% |
| Cc1c(N=Cc2cccnc2)c(=O)n(-c2ccccc2)n1C | inactive: 71% |
| COc1ccc(-c2ccc(CCC(=O)O)[nH]2)cc1 | inactive: 99% |
| O=C(c1cc2ccccc2oc1=O)N1CCN(c2ccc(F)cc2)CC1 | inactive: 66% |
| Cc1cc(C)c2c(CC(=O)Nc3ccc(S(=O)(=O)N4CCCCC4)cc3)coc2c1 | inactive: 76% |
| CCOC(=O)c1ccc(NC(=O)Cn2c(=O)cc(C(F)(F)F)c3c(C)nn(C)c32)cc1 | inactive: 95% |
| Cc1ccc(C(=O)Nc2ccc(S(=O)(=O)Nc3onc(C)c3C)cc2)cc1 | inactive: 77% |
| Cc1ccc(Cl)cc1N1CCN(CCCNC(=O)C2COc3ccccc3C2)CC1 (stereo not given) | inactive: 83% |
| COc1ccc(-c2cc(C(=O)Nc3cccc(O)c3)on2)cc1OC | inactive: 80% |
| Fc1ccc(CSc2nc(NCc3ccccc3)c3ccccc3n2)cc1 | inactive: 91% |

| Structure (SMILES) | survival |
| --- | --- |
| CCc1ccc2nc3sc(C(N)=O)c(N)c3cc2c1 | inactive: 109% |
| COc1ccc(CNC(=O)Cn2c(=O)cc(C)c3c(C)nn(-c4cccc(Cl)c4C)c32)cc1 | inactive: 95% |
| O=c1[nH]nc(-c2ccccc2)c2cc3c(=O)[nH]nc(-c4ccccc4)c3cc12 | inactive: 100% |
| O=C(Nc1ccc(NC(=O)C2CC2)nc1)c1cccc(F)c1 | inactive: 77% |
| COc1cc(NC(=O)CNS(=O)(=O)c2cccs2)cc(OC)c1OC | inactive: 96% |
| O=C(NCc1cccs1)c1ccc(CSc2nc3ccncc3n2Cc2ccccc2)cc1 | inactive: 110% |
| COc1cccc(C2=NS(=O)(=O)N(C)C(C(=O)Nc3ccccc3SC)=C2)c1 | inactive: 85% |
| CCOc1ccc(S(=O)(=O)NCCc2csc3nc(-c4ccc(F)cc4)nn23)cc1 | inactive: 97% |
| CCCC(=O)Nc1cc(C)c(NC(=O)CCC)cn1 | inactive: 88% |
| COc1cc2c(C(=O)Nc3cc(OC)c(OC)c(OC)c3)cn(C)c(=O)c2cc1OC | inactive: 63% |
| CCC(C)c1ccc2oc(-c3ccc(NC(=O)c4cc5ccccc5o4)cc3)nc2c1 (stereo not given) | active: 46% |
| COc1ccc(C2c3cc(OC)c(OC)cc3CC(=O)N2c2ccc(C)cc2)cc1 (stereo not given) | inactive: 80% |
| CCCC(=O)Nc1nnc(S(=O)(=O)N(C)Cc2ccc(Cl)cc2)s1 | inactive: 103% |
| Cc1cccc(Cn2c(=O)n3nc(-c4ccccc4)nc3c3ccccc32)c1 | active: -16% |
| CC(C)c1ccc(S(=O)(=O)c2nnn3c2nc(N2CCCC2)c2sccc23)cc1 | inactive: 72% |
| Cn1c(=O)[nH]c2cc(-c3noc(-c4ccc(Br)cc4)n3)ccc21 | inactive: 81% |
| COc1ccccc1Nc1nc(-c2ccccc2F)nc2ccccc12 | inactive: 73% |
| Cc1cccc(-c2nn3c(=O)cc(CN4CCN(C(=O)/C=C/c5ccccc5)CC4)nc3s2)c1 | inactive: 80% |
| Cc1cccc(C(=O)NCC(c2ccco2)S(=O)(=O)c2cccs2)c1 (stereo not given) | inactive: 92% |
| CCOC(=O)C1CCN(c2ncnc3c2nc2n3CCCCC2)CC1 | inactive: 87% |
| Cc1cccc(NC(=O)c2ccc(-c3ccccc3)s2)c1 | inactive: 82% |
| COc1cccc(-c2noc(C3CCCN(S(=O)(=O)c4ccccc4F)C3)n2)c1 (stereo not given) | inactive: 65% |
| CCc1ccc(NC(=O)c2cnn(-c3ccccc3)c2-n2cccc2)cc1 | active: 31% |

| Structure (SMILES) | survival |
| --- | --- |
| CCc1cnc2c(c1SCC(=O)NCc1ccccc1Cl)c(=O)n(C)c(=O)n2C | inactive: 88% |
| CCC(Oc1ccccc1)C(=O)Nc1nnc(S(=O)(=O)N(CC)CC)s1 (stereo not given) | inactive: 104% |
| O=C(CC1N=C2c3ccccc3N=C(SCc3ccc(F)cc3)N2C1=O)NCc1ccc2c(c1)OCO2 (stereo not given) | inactive: 67% |
| Cn1c2c(c3ccccc31)CCc1nonc1-2 | inactive: 96% |
| O=C(NCCN1CCN(c2cccc(Cl)c2)CC1)Nc1ccccc1 | inactive: 77% |
| CCc1ccc(NC(=O)c2ccc(-c3ccccc3)s2)cc1 | inactive: 134% |
| Brc1cccc(-c2nnn3c2nc(NCc2ccc4c(c2)OCO4)c2ccccc23)c1 | inactive: 110% |
| O=C(NCC(c1cccnc1)N1CCc2ccccc21)c1cccc(Br)c1 (stereo not given) | active: 41% |
| COc1ccc(-n2ncc(C(=O)NCc3ccco3)c2C2CCN(C(=O)OC(C)(C)C)CC2)cc1 | inactive: 83% |
| CC(C)NC(=O)C1CCC(Cn2c(=O)c3sccc3n(Cc3ccc(F)cc3)c2=O)CC1 (stereo not given) | inactive: 68% |
| COc1cc2ccccc2cc1C(=O)Nc1cccc(-c2nc3cc(C)c(C)cc3o2)c1 | active: 41% |
| COC(=O)c1c(NC(=O)c2ccc(S(=O)(=O)N3CCC(C)CC3)cc2)sc2c1CCN(C)C2 | inactive: 73% |
| Cc1ccccc1CNC(=O)c1cnc2sc(N3CCC(C)CC3)nn2c1=O | inactive: 67% |
| CCn1c(SCC(=O)N2CCCCC2)nnc1-c1ccc(S(=O)(=O)N2CCCC2)cc1 | inactive: 104% |
| CN(C(=O)CSc1nnc(NC(=O)Nc2ccccc2)s1)c1ccccc1 | inactive: 67% |
| Cc1cc(C)c(NC(=O)C2CCN(c3nc4ccccc4n4cccc34)CC2)c(C)c1 | inactive: 61% |
| O=C(COC(=O)c1ccccc1Cl)Nc1nccs1 | inactive: 94% |
| CCCN(C(=O)C(C)C)c1nnc(-c2cc(OC)c(OC)c(OC)c2)s1 | inactive: 114% |
| Cc1cccc(C(=O)Nc2ccc(S(=O)(=O)N3CCC(c4nc5ccccc5s4)CC3)cc2)c1 | active: 40% |
| COCCCNC(=O)c1cc2cc(S(=O)(=O)N3CCCCC3)ccc2n1C | inactive: 100% |
| CCC(C)(C)NC(=O)C1CCN(S(=O)(=O)c2ccc3c(c2)CCCN3C(C)=O)CC1 | inactive: 76% |
| CNC(=S)N(Cc1cc2ccc(OC)cc2[nH]c1=O)C1CCCC1 | inactive: 108% |
| C=Cc1ccc(Cn2c(C(=O)O)c(CNCc3ccc(F)cc3)c3ccc(C)cc32)cc1 | inactive: 86% |

| Structure (SMILES) | survival |
| --- | --- |
| Cc1cc(C)c(NC(=O)CSc2ncc3c(n2)-c2cc(Cl)ccc2N(C)S3(=O)=O)c(C)c1 | inactive: 106% |
| Cc1ccc(NC(=O)/C(C#N)=C/c2ccc(-c3ccc(Cl)c(C(=O)O)c3)o2)cc1C | inactive: 70% |
| COc1ccc(Cn2c(C(=O)O)c(CNCCc3ccco3)c3ccc(OC)cc32)cc1 | inactive: 103% |
| CCOc1cccc(NC(=O)C2CC(=O)N(CC)C(=Nc3ccc(F)cc3)S2)c1 (stereo not given) | active: 17% |
| O=C1CS(=O)(=O)C2(C(=O)N(Cc3ccccc3Cl)c3ccccc32)N1c1ccc(F)cc1 (stereo not given) | inactive: 87% |
| N#CC1=C(N)C(C#N)(C#N)C(c2ccccc2)C2CCCC=C12 (stereo not given) | inactive: 97% |
| CC(C)(C)c1ccc(/C=C/C(=O)Nc2ccc(S(N)(=O)=O)cc2)cc1 | inactive: 63% |
| CCN(CC)S(=O)(=O)c1ccc2c(c1)N(CC(=O)Nc1ccccc1F)C(=O)C1CCCN21 (stereo not given) | inactive: 76% |
| COC(=O)c1c(-c2ccc(Cl)cc2)noc1N1CCN(c2cc(C)ccc2C)CC1 | inactive: 115% |
| COc1cccc(NC(=O)C2CCCN(S(=O)(=O)c3cn(C(C)C)cn3)C2)c1 (stereo not given) | inactive: 131% |
| CCOc1ccc(CCNC(=O)c2cc3cccc4c3n2CCS4)cc1 | inactive: 94% |
| CC(C)c1cccc(C(C)C)c1NC(=O)c1ccncc1 | inactive: 102% |
| COc1ccccc1N1CCN(c2ncnc3c2nnn3C)CC1 | inactive: 131% |
| Cc1ccc(C)c(NC(=O)CN2CCSc3ccc(S(=O)(=O)N4CCCC4)cc32)c1 | inactive: 60% |
| Cc1cc(SCC(=O)NCc2ccc(Cl)cc2)nc(=O)[nH]1 | inactive: 86% |
| CCCCCn1c(=O)[nH]c2cc(C(=O)Nc3ccc(F)c(F)c3)ccc2c1=O | inactive: 88% |
| N#Cc1ccc(-c2cccs2)nc1SCC(=O)Nc1cccc(C(F)(F)F)c1 | inactive: 48% |
| CCc1ccc(N2C(=O)C3C(C(=O)OC)=NN(C(C)=O)C3C2=O)cc1 (stereo not given) | inactive: 75% |
| Cc1ccc(S(=O)(=O)N2CCC(C(=O)NCc3ccccc3Cl)CC2)cc1 | inactive: 74% |
| CCN1CCN(Cc2c(O)ccc3c(C)c(-c4ccc(OC)cc4)c(=O)oc23)CC1 | inactive: 107% |
| CCN(CC)CCOC(=O)c1ccc(NC(=O)c2cc3c(=O)n(CC)c4ccccc4c3s2)cc1 | inactive: 80% |

Reference: PubChem BioAssay AID463173 (ICCB-Longwood Screening Facility, Harvard Medical School, 2010)
